Measured values reported in the supplement of paper PMC10986608.
“And” between values parts separate entries of the source, which are not always exact repeats. Equal entries are not always repeated. The list shows a part of the results. Single values are uncertain, as repeats are few or missing.

tested on: Candida albicans DPL-15; experiment: growth (OD600) after compound treatment (apparently relative to screen median) (relative growth (fraction; screen median 1.02)); DPL-15 is a caspofungin-resistant clinical isolate; higher = more fungal growth (less antifungal activity); details: 25 µM; RPMI 1640; 48 h; 30 °C

| Structure (SMILES) | growth |
| --- | --- |
| COC(=O)c1cc2c(c3c4ccccc4n(S(=O)(=O)c4ccccc4)c13)C(=O)N(Cc1ccc(C(F)(F)F)cc1)C2 | 1.05 |
| CC(C)CC1=NCCNC2=C1C(c1cccc(C(F)(F)F)c1)N(c1ccccc1)C2=O (stereo not drawn) | 0.991 |
| C=CCC1=C(OC)C(CC=C)(C/C=C/c2ccc([N+](=O)[O-])cc2)C(O)=C(C(=O)c2ccccc2)C1=O (stereo not drawn) | 1.06 |
| CC#CCN1C(=O)N(C(C)=O)C(c2ccccc2)C(C(=O)OC)=C1CC (stereo not drawn) | 0.969 |
| COC(=O)c1nnc(N[C@@H](Cc2c[nH]c3ccccc23)C(=O)OC)nc1C(=O)OC | 0.95 |
| COC(=O)CC#C[C@H](C)[C@@H](NS(=O)(=O)c1ccc([N+](=O)[O-])cc1)C(C)(C)C | 1.15 |
| CC(C)Cc1n[nH]c2c1C(c1ccccc1Cl)N(c1ccc3ncnn3c1)C2=O (stereo not drawn) | 1.04 |
| CC(C)=C(C#N)Cc1cc(O)cc2oc3cccc(O)c3c(=O)c12 | 0.985 |
| CCCC[C@]12Cc3ccccc3[C@H](O1)c1c(cc(-c3ccccc3)oc1=O)O2 | 1.04 |
| COC1=C[C@@H]2C(=O)[C@H](C1=O)[C@@H]1c3ccccc3C[C@]21C | 1.02 |
| COc1cc2c3c4c(c(O)cc(C)c14)C(=O)O[C@@H]3[C@@H]1C[C@@H](C)O[C@]1(/C=C/CCC(=O)O)O2 | 1.04 |
| COc1ccccc1Cn1nc(C)c2c1C(=O)NC2c1ccccc1 (stereo not drawn) | 0.949 |
| CCC(C)CCOS(=O)(=O)NCC(F)(F)F (stereo not drawn) | 0.914 |
| CC(C)Cc1nn(C)c2c1C(c1ccc(F)cc1)N(Cc1ccccc1)C2=O (stereo not drawn) | 0.963 |
| CC(C)c1nn(-c2ccc(F)cc2)c2c1C(c1ccccc1)NC2=O (stereo not drawn) | 0.984 |
| COc1ccc(N2C(=O)c3nn(C)c(-c4ccccc4)c3C2c2cccc(C(F)(F)F)c2)cc1 (stereo not drawn) | 1.03 |
| CC(C)(C)CN(C(=O)OC(C)(C)C)S(=O)(=O)NC(C)(C)C | 1.13 |
| COc1ccc(N2C(=O)C3=C(C(c4ccccc4)=NCCN3)C2c2ccccc2)cc1 (stereo not drawn) | 1.1 |
| COC(=O)C/C=C/[C@H](C)[C@@H](NC(=O)[C@@H](CC(C)C)NC(=O)OC(C)(C)C)c1ccccc1 | 1.05 |
| CC(C)c1nn(Cc2ccccc2)c2c1C(c1cccc(C(F)(F)F)c1)NC2=O (stereo not drawn) | 1.04 |
| COC(=O)C1=C(C)NC(=O)NC1c1ccc(Br)cc1 (stereo not drawn) | 0.896 |

| Structure (SMILES) | growth |
| --- | --- |
| O=C1CC2(CCCCC2)CNC(=O)c2cccc(c2)-c2cc(n[nH]2)COc2ccccc2CN1 | 1.2 |
| COCCN1C(=O)CC[C@@]23C1=NC(C(=O)OC)=C(C(=O)OC)[C@@H]2N(Cc1ccccc1)c1ccccc13 | 0.86 |
| COc1cc(O)c(C(=O)/C=C/c2cccnc2)c(OC(C)=O)c1 | 0.942 |
| CCc1ccccc1-n1nc(C(C)C)c2c1C(=O)NC2c1ccccc1 (stereo not drawn) | 1.02 |
| COC(=O)c1[nH]c2ccc(Cl)cc2c1[C@]12CCN(C(=O)Cc3cccc(F)c3F)[C@H]1Nc1ccccc12 | 1.06 |
| Cc1cc(N)n(Cc2ccccc2Cl)n1 | 1.06 |
| CCCCCCN(C(C)=O)S(=O)(=O)NC(C)(C)C | 1.18 |
| C=C1C(=O)N2CCCC2C(=O)N1Cc1ccccc1 (stereo not drawn) | 1.01 |
| CO[C@@H]1[C@H](O)CC[C@]2(O)CN(C3CCN(Cc4ccccc4)CC3)[C@](C)([C@H](O)CC=C(C)C)[C@@H]12 | 1.21 |
| CC1=CC2=CC(=O)C[C@@H](C)[C@]2(O)[C@@H]2CCC3(OCCO3)[C@@]2(O[Si](C)(C)C)C1 | 0.806 |
| CC(C)=CCc1cc(O)c(O)c2oc3cc(O)cc(O)c3c(=O)c12 | 0.601 and 0.715 |
| CCOC(=O)C1C=CC(OC)=CC=C1OC (stereo not drawn) | 1.21 |
| COC(=O)C1=C(C)N(CCc2cccs2)C(=S)NC1c1ccc(C(F)(F)F)cc1 (stereo not drawn) | 1.1 |
| Cc1cc(C)cc(-n2nc(C)c3c2C(=O)NC3c2cccc(C(F)(F)F)c2)c1 (stereo not drawn) | 0.886 |
| COc1ccc(N2C(=O)c3[nH]nc(CCc4ccccc4)c3C2c2ccc(F)cc2)cc1 (stereo not drawn) | 0.984 |
| CC(C)CC1=NCCN(C)C2=C1C(c1ccc(F)cc1)NC2=O (stereo not drawn) | 0.933 |
| CC(C)CC1=NCCN(C)C2=C1C(c1cccc(C(F)(F)F)c1)N(c1ccccc1)C2=O (stereo not drawn) | 0.994 |
| COc1cccc2c(=O)c3cccc(C(=O)O)c3[nH]c12 | 1.12 |
| COC(=O)/C=C/c1ccccc1 | 1.11 |
| C=CC[C@]12CC(=C)C[C@](CC=C)(C1=O)c1oc(-c3ccccc3)cc(=O)c1C2=O | 0.973 |
| C=C(C)CC1=C([O-])[C@]2(CC(=C)C)CC(=C)C[C@](C(=O)C(C)C)(C1=O)C2=O | 1.14 |

| Structure (SMILES) | growth |
| --- | --- |
| COc1ccc([C@]23Oc4cc(OC)cc(OC)c4[C@](O)([C@H]2O)[C@@H](C(=O)N(C)OC)[C@@H]3c2ccccc2)cc1 | 1.12 |
| CC(C)n1cc(Nc2cc(O)cc(O)c2C(=O)N2CC[C@@H](F)C2)cn1 | 1.07 |
| COc1cccc(Oc2ccc(C(F)(F)F)cc2C(=O)O)c1OCc1ccccc1 | 1.08 |
| COC(=O)C/C=C/[C@H](C)[C@H](NC(=O)C(F)(F)F)c1ccc(Br)cc1 | 0.964 |
| C=CCN1C(=O)c2[nH]nc(COC)c2C1c1ccccc1 (stereo not drawn) | 0.838 |
| CCOC(=O)[C@@H]1CCCN(CCc2ccccc2C)C1 | 0.862 |
| C=CCOC(=O)C#CCCCNC(=O)OC(C)(C)C | 0.97 |
| COc1ccccc1C#C[C@@H]1C=C[C@H](OC(C)=O)[C@@H](COC(C)=O)O1 | 0.893 |
| CCc1cc2c(nc1CC)CCCN2S(=O)(=O)c1ccc(C(F)(F)F)cc1 | 0.898 |
| COc1cc(OC)c2c(=O)c3c(CC=C(C)C)cc(OC)c(O)c3oc2c1 | 1.08 |
| COC(=O)C1=C(C)N(Cc2ccccc2)C(=S)NC1c1cccc(Cl)c1 (stereo not drawn) | 0.876 |
| COC(=O)C1=C(C)N(Cc2ccc(C(F)(F)F)cc2)C(NCc2ccncc2)=NC1c1ccccc1 (stereo not drawn) | 0.882 |
| COC(=O)C1=C(C)N(Cc2ccc(Cl)cc2)C(=S)NC1c1ccc(F)cc1 (stereo not drawn) | 0.98 |
| COc1cc(OC)c2c(c1)OC(Cc1ccc3ccccc3c1)(c1ccc(Br)cc1)C2=O (stereo not drawn) | 0.9 |
| COC[C@@H](O)[C@H]1OCc2oc3ccccc3c2[C@H]1/C=C/c1ccccc1 | 0.835 |
| COc1cc([C@@H]2[C@@H](C(=O)Nc3ccccc3)[C@H](C(=O)Nc3ccccc3)[C@H]2c2cc(OC)c(OC)c(OC)c2)cc(OC)c1OC | 0.994 |
| CO[C@@H]1[C@H](O)CC[C@]2(O)CN(c3ccc4[nH]ccc4c3)[C@](C)([C@H](O)CC=C(C)C)[C@@H]12 | 0.841 |
| COc1ccc(N2C(=O)c3[nH]nc(CC(C)C)c3C2c2cccc(Cl)c2)cc1 (stereo not drawn) | 0.972 |
| CC(=O)C1=C(C)N(CC#C[Si](C)(C)C)C(=O)N(C(C)=O)C1c1ccccc1 (stereo not drawn) | 0.951 |
| CC(C)CCCC(C)CCOS(=O)(=O)NC(C)(C)C (stereo not drawn) | 1.01 |
| COC(=O)Cc1nnn2c1[C@H](C)[C@H](c1ccccc1Br)OC[C@H](C)C2 | 1.13 |

| Structure (SMILES) | growth |
| --- | --- |
| CC(=O)OC[C@H]1O[C@H](C#CCC2CCCC2)C=C[C@@H]1OC(C)=O | 0.997 |
| CC1=NCCN(C)C2=C1C(c1ccccc1)NC2=O (stereo not drawn) | 1.08 |
| CC(=O)C1=C(C)N(Cc2ccc(Cl)cc2)C(=S)NC1c1ccc(Br)cc1 (stereo not drawn) | 0.932 |
| COC(=O)c1ccc(N2C(=O)c3[nH]nc(CC(C)C)c3C2C2CCCCC2)cc1 (stereo not drawn) | 1.12 |
| COc1ccc(Cn2ncc(C(C)C)c2Nc2cc(O)cc(O)c2C(=O)N2Cc3ccccc3C2)cc1 | 1.09 |
| COC(=O)C1=C(C)N(C)C(NCc2ccc(C(F)(F)F)cc2)=NC1c1cccc(F)c1 (stereo not drawn) | 1.06 |
| Nc1c(-c2ccc(F)cc2)cnc2c(-c3ccccn3)cnn12 | 0.879 |
| CCCCCOS(=O)(=O)N(CC)CC | 1.18 |
| CCCCCN(C(=O)OC(C)(C)C)S(=O)(=O)NCC(F)(F)F | 1.03 |
| COc1ccc(C2=CC(=O)C(c3ccc(Cl)cc3)C2)cc1 (stereo not drawn) | 1.06 |
| CC(C)CC1=NCCN(C)C2=C1C(c1ccc3c(c1)OCO3)N(Cc1ccccc1)C2=O (stereo not drawn) | 0.938 |
| C=CC[C@@H](O)COc1cc2c(cc1C1(c3cc4c(cc3OC[C@H](O)CC=C)OCO4)C(=O)Nc3c(F)cccc31)OCO2 | 0.827 |
| C=CCC1=C2OC(C)(C)[C@@H](CC=C)C[C@]23C[C@H](CC=C)C(C)(C)OC3=C(C(=O)c2ccccc2)C1=O | 1.07 |
| COCOc1cc(OC)c(OC)c2cc3oc(C)cc(=O)c3c(O)c12 | 0.951 |
| COC(=O)c1ccc(C(C)(C)C)c(O)c1 | 1.05 |
| COC(=O)C1=C(C)N(Cc2cccc(C(F)(F)F)c2)C(NCC2CC2)=NC1c1ccc(Cl)cc1 (stereo not drawn) | 0.87 |
| C=CCN1C(=O)C2=C(C(C(C)C)=NCC(C)(C)N2)C1c1ccc(F)cc1 (stereo not drawn) | 1.04 |
| COc1ccccc1N1C(=O)c2[nH]nc(CC(C)C)c2C1c1ccccc1Cl (stereo not drawn) | 0.939 |
| C[C@H]1Cc2c(COc3ccccc3)nc3c(c2CO1)CN(C(=O)C1CCCCC1)CC3 | 0.885 |
| N#CCCn1cnc2c(Cl)ncnc21 | 1.1 |
